Data on 22 molecules can be found in publication PMC12136788.

The other results are listed elsewhere or left out.

T1: UNK ZnF1-3 (human, UniProt Q9C0B0 31-174)
T1 sequence: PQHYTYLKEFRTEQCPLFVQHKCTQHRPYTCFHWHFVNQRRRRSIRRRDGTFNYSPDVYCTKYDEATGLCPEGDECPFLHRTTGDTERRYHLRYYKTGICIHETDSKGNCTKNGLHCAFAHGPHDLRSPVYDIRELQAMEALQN

B1: chr2:179515052:179515053:+_ENSMUSG00000000305_ENSMUST00000000314|mus_hu|mus_mus_mus_hu_False|18_108 (ssRNA)
RNA: GGGAGUUCUACAGUCCGACGAUCGCUUUCCCGCGCAGUCACCGUGAACGCCACCUGCUCGGAGGGGACCUGCAGCUCCCGGGUGGCGAAGACUGUCCCAUCUGCCCCAACUUUGAAGUCCAAGCUGUUGGUCUCAUAUUGUGUCAACAGAGGAUUGAGCAUCA
B2: chr2:24297012:24297013:-_ENSG00000115128_ENST00000233468|hu_mus|FALSE|FALSE (ssRNA)
RNA: GGGAGUUCUACAGUCCGACGAUCACGAAUAGGUCCAUAUUUCCCAAAUAUAUCAUACAUUUCUUCUGCUGUGAUUUUGUAUGGCAAAUUCCUUAUAUACAAAAUCCGAUUUACUUCAGGUGGGAGGCGAAUAUUCGCCCUCUUCAACAGAGGAUUGAGCAUCA
B3: chrX:71549400:71549401:+_ENSMUSG00000019087_ENSMUST00000019231|mus_hu|mus_mus_mus_hu_False|78_78 (ssRNA)
RNA: GGGAGUUCUACAGUCCGACGAUCGCAGUAGGAAGAGGGAAGCUCUUCAGUCCAGUGGUCACAAAACUGGGAAAGCAACAACACGGACACCGUCCCACCCUCAACCCCCCCACUGGCACAGGGUCACACAAUCUGGGUCAAAGACAACAGAGGAUUGAGCAUCA
B4: chr14:89338683:89338684:+_ENSG00000165533_ENST00000346301|hu_hu|hu_hu_hu_mus_False|58_78 (ssRNA)
RNA: GGGAGUUCUACAGUCCGACGAUCGUGGUUGUUGUGGACCAGGGCCAGCCUGAAGCACUGAUGGGCCAAGUUUGUAUCUCCUAUUCCCACAGCUAUGUGCCCCAGGUUGUACCAGACAUCAGCUGCCUCUUCUUCAUUUUCAGCCAACAGAGGAUUGAGCAUCA
B5: chr10:33190432:33190433:-_ENSG00000150093_ENST00000302278|hu_mus|hu_hu_hu_mus_True|58_78 (ssRNA)
RNA: GGGAGUUCUACAGUCCGACGAUCUACAUUUUCCAAACCUGCAUGUGAAUAAAACCCUGGCAAUAUUGCCCCAAAACUACCUAACUGUGACUAAGAUGCUGCUGCUGUGAGCUUGGUGUUGCAAAAUCCGCCUGAGUAGGAUUCCAACAGAGGAUUGAGCAUCA
B6: chr1:152005216:152005217:-_ENSG00000163191_ENST00000271638|hu_hu|motif|central (ssRNA)
RNA: GGGAGUUCUACAGUCCGACGAUCUCAGGUCCGCUUCUGGGAAGGGACAGCCUUGAGGAAGGAGUCAUGGCAAGCCAUAGCGGGGCCACCAAUCAGAUUAAGAAAUUCUGAGAAAUCUAGCUGACCAUCACUGUUGGUGUCCAGCAACAGAGGAUUGAGCAUCA
B7: chr10:127827607:127827608:+_ENSMUSG00000014498_ENSMUST00000014642|mus_hu|FALSE|FALSE (ssRNA)
RNA: GGGAGUUCUACAGUCCGACGAUCGCUGCAGUUCUUGAGCAGGCUGAAGCUGAAAGGACUGACGGCGUCCUUGGGUGGGAAAGGCUUCAUGGUGGAAAGGAUCAAGGCCAGGCAGUCUGCCACAUCUUUGUUGGGGGCACAGGCCAACAGAGGAUUGAGCAUCA
B8: chrX:98862621:98862622:+_ENSMUSG00000034160_ENSMUST00000044475|mus_hu|mus_mus_mus_hu_False|18_78 (ssRNA)
RNA: GGGAGUUCUACAGUCCGACGAUCCUGCAUCUCCUUUAGAGUGUUUCCCAUAUUAGAAUAAGCAUCAGCAAAGGUAGGACUGAUUCGAAUAGCCUCCUUAUAAUGCAUCAGAGCUUCCUGCAGCUUGCCCUGCUGCUGCAGUACCAACAGAGGAUUGAGCAUCA
B9: chr3:33038425:33038426:-_ENSG00000170266_ENST00000307363|hu_hu|FALSE|FALSE (ssRNA)
RNA: GGGAGUUCUACAGUCCGACGAUCAGGUGGGGCUUUGGCACUGCAGGGAUGCAGGGAAACCUCAGGUGAAAAUGCACAUCCUAAAUUCCUUUUCCAUUUCCACAUUCCAAUCAGUGAAAUGUGGCAUGACAGGGAGGAUCUGUGCAACAGAGGAUUGAGCAUCA
B10: chr6:108533379:108533380:-_ENSG00000112335_ENST00000426155|hu_mus|FALSE|FALSE (ssRNA)
RNA: GGGAGUUCUACAGUCCGACGAUCUGCUUCUUCUCACCAAACUCAGGCAUGUCUUAUUUUAGAUGGAGUAUAGCUUUUAUCUAUAAUUUCAUCCUGUAAAAACAUGUGAAGACAACGUUCAUUCUGGGCCAGAGGAUGACCAGCCAACAGAGGAUUGAGCAUCA
B11: chr11:47074021:47074022:+_ENSG00000149179_ENST00000278460|hu_hu|FALSE|FALSE (ssRNA)
RNA: GGGAGUUCUACAGUCCGACGAUCGCCAUUUUUGCCCACAGUUCGGAAGCAUCUCCAGAAGGCCCGUAAAAAUGAUACCCUAUUGUGGGGGGUGGCUUGGACGAAGCUGAAUUCUCGAAAGAGAAUGUGUGUUCCCUGGCAUACCAACAGAGGAUUGAGCAUCA
B12: chr4:144460044:144460045:+_ENSG00000153147_ENST00000283131|hu_mus|hu_hu_hu_mus_False|18_28 (ssRNA)
RNA: GGGAGUUCUACAGUCCGACGAUCACGGUCCAUAGCCUGAAGAUCAACUUGCGGAUUCCAAUCUGAGUCAUAUAAAAUGACUACAUCAGCAGUUGCAAGAUUGAUGCCAAGACCACCAGCACGCGUGCUUAGCAUAAAUACAAACAACAGAGGAUUGAGCAUCA
B13: chr4:34756745:34756746:-_ENSMUSG00000039967_ENSMUST00000047950|mus_mus|FALSE|FALSE (ssRNA)
RNA: GGGAGUUCUACAGUCCGACGAUCUAUAUUUGGACUUAGGACACUUUCCACUGAGGGUAACAAUGGAGCUGAUACACUUGCUAAAUGAGCUGGGAAAAUGGAAGGCGAGACAUGCUGCACCUGGGCUGAACAGGCAGGGUUCCCCAACAGAGGAUUGAGCAUCA
B14: 108517216_108517336_2877_CDS_ENSMUSG00000032846_ENSMUST00000105097|mouse|control|control (ssRNA)
RNA: GGGAGUUCUACAGUCCGACGAUCCGUCCGGGCACUGCUGGCCAGCUUUUCCUGUUGAUGGCAGUCCAGGUGGAGGCGGACUAUGGUGCUGUUGGACAUCACGGUAGUCGCAACAAUACUCGUGGCCUCCGUGGGAGUGAAAAGCAACAGAGGAUUGAGCAUCA
B15: chr11:57926588:57926589:+_ENSMUSG00000020515_ENSMUST00000020822|mus_mus|FALSE|FALSE (ssRNA)
RNA: GGGAGUUCUACAGUCCGACGAUCAUCGAUCCCUUCCUCCUCGUGUUUCUGGAACUGCAGCCCUGAGUUUGCAAGCAGAUCUAUGGAAUCCUGGGAGUACAUAUCCUCUGUCAGGUUGAACUUGAAGUUGAACUGCCAUGUGUUCAACAGAGGAUUGAGCAUCA
B16: 69782529_69783183_1747_CDS_ENSMUSG00000044308_ENSMUST00000055758|mouse|control|control (ssRNA)
RNA: GGGAGUUCUACAGUCCGACGAUCAAGCCCCCACAUGGGUUGUGCACAGGCUUCCAGCUCAGCAGCAAAGGCAGCAUAGUAGGUCUGAGACUCAAAUUCCACGUGCUCAUUGAGCUCUCGCUUGUUCAAGUUCAUACCUUGAAACAACAGAGGAUUGAGCAUCA
B17: chr8:117878989:117878990:-_ENSG00000164754_ENST00000297338|hu_hu|hu_hu_hu_mus_True|68_68 (ssRNA)
RNA: GGGAGUUCUACAGUCCGACGAUCCCAGAGGCCCUCGUUUACUGAGGACAAAAUGUGCGUAGAACAUUGUUCUGGCUUGCUAUGAAAUAAGAAGAAACCUGGAUCUCGGCGGGGAGCCGGGAGGGGUGGGUGGCCCGGGGAGGGCAACAGAGGAUUGAGCAUCA
B18: chr5:4806066:4806067:-_ENSMUSG00000028926_ENSMUST00000030763|mus_mus|FALSE|FALSE (ssRNA)
RNA: GGGAGUUCUACAGUCCGACGAUCUCACCCUGUCUUUGUUUUCCAUGUUUAUUUCUCUACCUGCUCAGAAACAGUCAGGCUAUUGAAAUAGCAAGUGGAUUUUGGUCUCCUGUGUAAAUGUGUGCUCAUUUCCAAUAAAAAACGCAACAGAGGAUUGAGCAUCA
B19: 151583239_151585632_2825_3pUTR_ENSMUSG00000034021_ENSMUST00000016569|mouse|control|control (ssRNA)
RNA: GGGAGUUCUACAGUCCGACGAUCCUCCCAGCAGCAAGUCUCAGGCGUGACAUAUCUGGUUUACUAAUUUUCCCUUGUUCUGUCAAAUCCCCAUCACUAUGCAGUAUCGUUGUUAGUAAUCUGAGGGUGGAAGUUCCUGACUUACAACAGAGGAUUGAGCAUCA
B20: 69488064_69490052_123_CDS_ENSG00000149716_ENST00000279147|human|control|control (ssRNA)
RNA: GGGAGUUCUACAGUCCGACGAUCUUCCCGAUACCCUUCCCCAUGAAACCUCUCAUCCGCCAUCACGAUGGCAUCGAAUAUGUCCUGACUGCCAGCCAUAGCGGCAAGCAGCCCGCCCUUGGCCCCCGGGUUUCUGCAGCCCCGCAACAGAGGAUUGAGCAUCA
B21: chr9:53390698:53390699:-_ENSMUSG00000032047_ENSMUST00000034547|mus_hu|FALSE|FALSE (ssRNA)
RNA: GGGAGUUCUACAGUCCGACGAUCGGUUGUCUACAGCUUCUGAAUUAGCAUGGCAGAAGCACCUCCUCCUCCAUUGCAAAUACUGGCAAGACCGUAUUCUCCUUGCUUCAAGGCAUGAGUCAAAUGACCAACAAUCCUGGCUCCCAACAGAGGAUUGAGCAUCA
B22: chr16:20935853:20935854:+_ENSG00000102897_ENST00000219168|hu_mus|FALSE|FALSE (ssRNA)
RNA: GGGAGUUCUACAGUCCGACGAUCCAAGAAUCAGGAGACCACAAAAAAGCCUAUACAGAAACCAGUUUUAAGCAAAUGAAAAUAACUUGCGGAAAAACCUCAAGUUUUGGGGAGAAGGGUAGCUUUGGAGCCAUGUGAACUUGCCAACAGAGGAUUGAGCAUCA

The test concerns the target T1, UNK ZnF1-3. The experiment in a line: nsRBNS (natural sequence RNA bind-n-seq); RBNS binding buffer (assumed for nsRBNS): 25 mM Tris pH 7.5, 150 mM KCl, 3 mM MgCl2, 0.01% Triton X-100, 500 ug/ml BSA, 20 U/ml SUPERase-In, 4 C; UNK is unkempt and MSI1 is Musashi-1; names of the RNAs are library labels; protein concentration not given here; high values mean tight binding.
As to B1, the binding signal turned out to be 0.872 enrichment R.

Take B2: the binding signal came out at 0.592 enrichment R.

Consider B3, for which the binding signal worked out at 1.76 enrichment R.

B4 had a binding signal of 0.605 enrichment R.

B5 showed a binding signal of 1.22 enrichment R.

In turn, B6 returned a binding signal of 1.48 enrichment R.

Molecule B7 showed a binding signal of 2.09 enrichment R.

The molecule B8 registered a binding signal of 0.948 enrichment R.

B9 yielded a binding signal of 1.07 enrichment R.

Regarding B10, the binding signal was 1.03 enrichment R.

Molecule B11 displayed a binding signal of 2.1 enrichment R.

The molecule B12 had a binding signal of 1.06 enrichment R.

The molecule B13 had a binding signal of 1.42 enrichment R.

B14: the binding signal was determined as 0.71 enrichment R.

For the molecule B15, the binding signal was 0.776 enrichment R.

In turn, B16 had a binding signal of 1.23 enrichment R.

Molecule B17 displayed a binding signal of 2.56 enrichment R.

B18: the binding signal stood at 1.09 enrichment R.

Turning to B19, the binding signal worked out at 1.06 enrichment R.

For B20, the binding signal turned out to be 1.13 enrichment R.

For B21, the binding signal amounted to 1.08 enrichment R.

In turn, B22 registered a binding signal of 2.38 enrichment R.
